Our source for the binding values is paper PMC6529219.

Chains of the proteins cited; added tags and fusions are not shown.
UniProt P42858: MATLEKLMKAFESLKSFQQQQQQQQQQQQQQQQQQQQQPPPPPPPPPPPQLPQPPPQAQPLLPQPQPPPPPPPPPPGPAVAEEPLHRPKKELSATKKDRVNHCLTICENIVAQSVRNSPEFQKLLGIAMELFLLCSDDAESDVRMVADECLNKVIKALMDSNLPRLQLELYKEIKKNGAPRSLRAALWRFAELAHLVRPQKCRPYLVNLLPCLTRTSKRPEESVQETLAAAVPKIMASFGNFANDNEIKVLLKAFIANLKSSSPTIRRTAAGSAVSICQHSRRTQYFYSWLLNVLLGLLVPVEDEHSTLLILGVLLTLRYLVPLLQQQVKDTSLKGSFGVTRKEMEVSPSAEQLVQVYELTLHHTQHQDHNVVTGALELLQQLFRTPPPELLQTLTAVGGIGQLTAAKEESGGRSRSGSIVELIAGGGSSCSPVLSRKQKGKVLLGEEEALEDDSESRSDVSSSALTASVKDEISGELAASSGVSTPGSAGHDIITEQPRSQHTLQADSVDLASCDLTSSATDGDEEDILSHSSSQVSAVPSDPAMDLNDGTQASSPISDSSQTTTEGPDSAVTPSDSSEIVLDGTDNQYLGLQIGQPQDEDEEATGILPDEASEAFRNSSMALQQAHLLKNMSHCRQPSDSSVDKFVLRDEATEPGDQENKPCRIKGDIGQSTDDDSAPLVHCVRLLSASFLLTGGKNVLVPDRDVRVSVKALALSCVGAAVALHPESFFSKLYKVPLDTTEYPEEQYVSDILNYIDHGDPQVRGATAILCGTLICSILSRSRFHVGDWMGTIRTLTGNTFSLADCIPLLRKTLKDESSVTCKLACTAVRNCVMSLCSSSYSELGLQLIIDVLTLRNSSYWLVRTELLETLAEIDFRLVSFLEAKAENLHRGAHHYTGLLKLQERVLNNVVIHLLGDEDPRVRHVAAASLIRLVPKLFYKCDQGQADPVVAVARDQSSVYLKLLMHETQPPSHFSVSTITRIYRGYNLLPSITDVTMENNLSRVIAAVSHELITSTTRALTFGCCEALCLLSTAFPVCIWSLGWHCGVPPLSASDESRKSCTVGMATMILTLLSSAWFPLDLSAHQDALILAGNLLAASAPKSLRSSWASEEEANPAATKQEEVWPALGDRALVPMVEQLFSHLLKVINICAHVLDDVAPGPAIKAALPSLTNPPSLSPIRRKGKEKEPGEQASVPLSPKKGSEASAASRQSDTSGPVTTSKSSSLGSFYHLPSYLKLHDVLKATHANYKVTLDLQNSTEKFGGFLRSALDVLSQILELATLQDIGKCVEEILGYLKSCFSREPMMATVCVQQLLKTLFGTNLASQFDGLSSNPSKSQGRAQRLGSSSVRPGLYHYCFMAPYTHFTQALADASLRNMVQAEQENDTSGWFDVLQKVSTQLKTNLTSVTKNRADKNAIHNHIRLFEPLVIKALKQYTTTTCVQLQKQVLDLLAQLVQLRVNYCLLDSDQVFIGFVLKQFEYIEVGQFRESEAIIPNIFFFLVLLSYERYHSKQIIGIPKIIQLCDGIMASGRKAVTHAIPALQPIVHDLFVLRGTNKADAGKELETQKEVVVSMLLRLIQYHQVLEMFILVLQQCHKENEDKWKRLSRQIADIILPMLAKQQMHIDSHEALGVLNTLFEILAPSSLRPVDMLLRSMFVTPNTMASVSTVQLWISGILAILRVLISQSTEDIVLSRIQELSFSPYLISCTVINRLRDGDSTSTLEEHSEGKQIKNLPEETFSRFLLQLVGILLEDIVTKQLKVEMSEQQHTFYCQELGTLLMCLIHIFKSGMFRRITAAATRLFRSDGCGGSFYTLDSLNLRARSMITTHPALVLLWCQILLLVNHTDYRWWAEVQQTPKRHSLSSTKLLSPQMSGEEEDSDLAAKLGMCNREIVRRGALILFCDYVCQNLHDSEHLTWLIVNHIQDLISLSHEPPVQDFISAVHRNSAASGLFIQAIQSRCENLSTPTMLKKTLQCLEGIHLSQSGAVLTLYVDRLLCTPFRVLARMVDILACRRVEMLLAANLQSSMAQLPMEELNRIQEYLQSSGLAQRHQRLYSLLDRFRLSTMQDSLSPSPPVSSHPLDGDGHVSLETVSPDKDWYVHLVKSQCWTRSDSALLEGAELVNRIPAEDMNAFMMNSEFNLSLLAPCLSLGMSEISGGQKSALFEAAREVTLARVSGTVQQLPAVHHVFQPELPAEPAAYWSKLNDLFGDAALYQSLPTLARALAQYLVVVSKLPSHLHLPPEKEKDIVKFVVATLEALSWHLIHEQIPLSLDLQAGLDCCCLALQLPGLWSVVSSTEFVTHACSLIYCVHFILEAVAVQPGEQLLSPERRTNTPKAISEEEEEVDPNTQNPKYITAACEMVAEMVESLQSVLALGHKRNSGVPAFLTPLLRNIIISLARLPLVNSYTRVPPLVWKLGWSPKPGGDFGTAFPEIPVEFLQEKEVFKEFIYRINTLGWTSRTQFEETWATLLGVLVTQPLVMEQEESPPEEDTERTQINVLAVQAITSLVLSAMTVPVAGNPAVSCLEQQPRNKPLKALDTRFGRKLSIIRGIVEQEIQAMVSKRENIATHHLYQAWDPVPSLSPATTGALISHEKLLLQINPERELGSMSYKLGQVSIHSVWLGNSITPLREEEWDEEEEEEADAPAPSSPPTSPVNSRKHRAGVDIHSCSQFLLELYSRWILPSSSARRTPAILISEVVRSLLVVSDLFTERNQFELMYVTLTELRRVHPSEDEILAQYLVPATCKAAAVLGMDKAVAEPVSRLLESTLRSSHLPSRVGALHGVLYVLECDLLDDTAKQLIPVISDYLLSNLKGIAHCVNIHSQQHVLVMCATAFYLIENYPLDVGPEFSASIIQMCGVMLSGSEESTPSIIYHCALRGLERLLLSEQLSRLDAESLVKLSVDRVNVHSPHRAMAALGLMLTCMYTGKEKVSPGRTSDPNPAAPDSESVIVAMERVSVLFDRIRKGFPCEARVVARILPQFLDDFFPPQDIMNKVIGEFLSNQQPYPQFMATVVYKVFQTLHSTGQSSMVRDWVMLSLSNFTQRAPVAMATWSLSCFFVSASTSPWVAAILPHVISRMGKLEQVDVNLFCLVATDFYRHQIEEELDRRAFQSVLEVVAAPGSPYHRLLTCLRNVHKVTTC
UniProt Q92793: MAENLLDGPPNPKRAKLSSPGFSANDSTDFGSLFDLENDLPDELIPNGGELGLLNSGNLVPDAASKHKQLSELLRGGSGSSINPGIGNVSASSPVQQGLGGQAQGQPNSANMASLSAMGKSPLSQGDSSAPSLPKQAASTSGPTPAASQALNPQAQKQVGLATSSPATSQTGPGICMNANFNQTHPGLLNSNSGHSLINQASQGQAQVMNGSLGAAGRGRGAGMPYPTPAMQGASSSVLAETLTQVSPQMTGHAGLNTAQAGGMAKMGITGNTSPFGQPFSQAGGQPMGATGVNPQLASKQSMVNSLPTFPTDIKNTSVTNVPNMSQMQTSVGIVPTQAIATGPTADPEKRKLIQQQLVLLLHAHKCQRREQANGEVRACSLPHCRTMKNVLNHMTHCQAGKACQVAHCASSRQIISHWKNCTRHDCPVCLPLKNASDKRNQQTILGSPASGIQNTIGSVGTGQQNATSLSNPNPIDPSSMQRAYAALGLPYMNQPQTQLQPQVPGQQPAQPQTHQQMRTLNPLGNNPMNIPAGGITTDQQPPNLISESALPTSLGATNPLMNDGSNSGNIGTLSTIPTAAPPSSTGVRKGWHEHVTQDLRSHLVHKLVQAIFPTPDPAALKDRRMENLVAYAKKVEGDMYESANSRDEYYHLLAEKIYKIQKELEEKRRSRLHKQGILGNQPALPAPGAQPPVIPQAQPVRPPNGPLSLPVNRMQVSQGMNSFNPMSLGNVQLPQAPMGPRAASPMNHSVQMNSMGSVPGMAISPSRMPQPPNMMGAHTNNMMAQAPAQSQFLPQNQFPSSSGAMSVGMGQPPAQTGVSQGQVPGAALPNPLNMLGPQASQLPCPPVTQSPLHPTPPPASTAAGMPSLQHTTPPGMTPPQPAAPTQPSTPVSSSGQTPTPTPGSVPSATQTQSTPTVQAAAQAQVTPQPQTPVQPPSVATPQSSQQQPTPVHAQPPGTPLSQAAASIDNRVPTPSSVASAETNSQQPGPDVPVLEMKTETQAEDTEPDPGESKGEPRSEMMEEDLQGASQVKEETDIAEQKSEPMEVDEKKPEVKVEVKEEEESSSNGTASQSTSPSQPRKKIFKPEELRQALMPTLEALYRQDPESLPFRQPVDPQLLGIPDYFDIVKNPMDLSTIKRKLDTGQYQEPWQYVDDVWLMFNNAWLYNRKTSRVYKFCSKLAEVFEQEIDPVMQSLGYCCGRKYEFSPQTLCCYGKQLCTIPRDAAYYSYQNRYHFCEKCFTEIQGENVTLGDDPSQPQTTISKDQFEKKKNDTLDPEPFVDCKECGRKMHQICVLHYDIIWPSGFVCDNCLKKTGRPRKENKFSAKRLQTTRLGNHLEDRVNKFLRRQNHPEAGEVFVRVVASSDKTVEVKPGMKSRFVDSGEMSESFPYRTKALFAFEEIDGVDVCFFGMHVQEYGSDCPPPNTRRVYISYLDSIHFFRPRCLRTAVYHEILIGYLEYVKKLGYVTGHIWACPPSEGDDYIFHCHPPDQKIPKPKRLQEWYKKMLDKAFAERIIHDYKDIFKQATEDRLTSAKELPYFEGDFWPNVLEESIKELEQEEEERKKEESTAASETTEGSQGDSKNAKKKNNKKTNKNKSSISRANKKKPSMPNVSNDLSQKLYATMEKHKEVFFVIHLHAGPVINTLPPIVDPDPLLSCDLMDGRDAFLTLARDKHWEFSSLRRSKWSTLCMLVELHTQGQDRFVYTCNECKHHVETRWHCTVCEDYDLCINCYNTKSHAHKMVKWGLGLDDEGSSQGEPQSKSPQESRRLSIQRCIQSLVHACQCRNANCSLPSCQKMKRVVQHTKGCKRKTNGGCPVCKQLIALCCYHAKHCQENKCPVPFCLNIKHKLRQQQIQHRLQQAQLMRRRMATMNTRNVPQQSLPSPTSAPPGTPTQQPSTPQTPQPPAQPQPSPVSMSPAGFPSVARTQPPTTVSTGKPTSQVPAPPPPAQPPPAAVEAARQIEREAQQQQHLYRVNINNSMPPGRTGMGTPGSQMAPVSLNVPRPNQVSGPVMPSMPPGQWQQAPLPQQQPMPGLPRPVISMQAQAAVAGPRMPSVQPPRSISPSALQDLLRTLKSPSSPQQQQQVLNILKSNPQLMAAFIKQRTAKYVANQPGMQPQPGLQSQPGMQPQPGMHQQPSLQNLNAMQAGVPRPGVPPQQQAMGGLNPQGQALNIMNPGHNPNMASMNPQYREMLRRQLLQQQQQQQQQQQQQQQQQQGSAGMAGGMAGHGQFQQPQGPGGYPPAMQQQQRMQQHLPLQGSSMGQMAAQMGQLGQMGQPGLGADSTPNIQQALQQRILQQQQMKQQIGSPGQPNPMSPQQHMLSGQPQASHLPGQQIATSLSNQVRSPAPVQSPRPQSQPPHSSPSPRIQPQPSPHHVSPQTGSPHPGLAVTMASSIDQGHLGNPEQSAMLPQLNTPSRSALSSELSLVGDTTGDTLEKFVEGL
UniProt P54257: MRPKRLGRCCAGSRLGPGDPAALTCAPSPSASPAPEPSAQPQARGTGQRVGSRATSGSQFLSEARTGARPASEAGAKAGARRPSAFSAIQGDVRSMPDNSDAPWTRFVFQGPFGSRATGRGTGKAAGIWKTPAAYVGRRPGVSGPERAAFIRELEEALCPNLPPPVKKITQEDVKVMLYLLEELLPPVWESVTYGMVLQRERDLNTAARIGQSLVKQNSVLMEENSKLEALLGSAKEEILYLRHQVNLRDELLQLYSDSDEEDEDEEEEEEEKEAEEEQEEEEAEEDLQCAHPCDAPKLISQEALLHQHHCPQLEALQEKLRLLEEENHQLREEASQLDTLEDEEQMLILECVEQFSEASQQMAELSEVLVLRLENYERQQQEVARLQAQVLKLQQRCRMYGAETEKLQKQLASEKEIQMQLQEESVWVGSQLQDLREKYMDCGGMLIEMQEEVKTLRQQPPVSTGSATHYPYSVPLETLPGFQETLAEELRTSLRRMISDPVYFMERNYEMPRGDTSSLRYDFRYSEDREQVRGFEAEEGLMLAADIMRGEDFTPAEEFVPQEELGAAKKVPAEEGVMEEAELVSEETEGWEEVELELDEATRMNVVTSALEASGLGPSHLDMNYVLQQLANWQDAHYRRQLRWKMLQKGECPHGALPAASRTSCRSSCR
UniProt P27695: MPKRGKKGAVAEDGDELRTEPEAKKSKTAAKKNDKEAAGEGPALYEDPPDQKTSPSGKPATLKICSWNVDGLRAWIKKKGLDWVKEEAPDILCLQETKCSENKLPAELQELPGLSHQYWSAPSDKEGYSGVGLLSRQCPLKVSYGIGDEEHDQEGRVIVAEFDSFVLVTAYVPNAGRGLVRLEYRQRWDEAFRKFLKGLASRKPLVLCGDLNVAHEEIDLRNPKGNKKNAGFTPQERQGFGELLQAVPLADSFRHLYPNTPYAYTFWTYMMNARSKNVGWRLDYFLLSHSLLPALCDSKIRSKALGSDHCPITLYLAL

One experiment concerns the target Myc-ATXN3 (UniProt P54252). Description: co-IP; HEK293 cells cotransfected with Myc-ATXN3 and FLAG-CBP; IP with Myc antibody (blot for CBP) or with FLAG antibody (blot for ATXN3) from nuclear extract.
For experiment [1], the target named is huntingtin (HTT), endogenous (human (endogenous in SH-SY5Y)) (UniProt P42858). Put plainly: co-IP; FLAG-tagged PNKP or its domains transfected into SH-SY5Y cells, nuclear extract 48 hr later; IP with anti-FLAG antibody (blot for endogenous HTT) or with anti-HTT antibody (blot with anti-FLAG).
A further experiment addresses FLAG-CBP (UniProt Q92793). Description: co-IP; HEK293 cells cotransfected with Myc-ATXN3 and FLAG-CBP; IP with Myc antibody (blot for CBP) or with FLAG antibody (blot for ATXN3) from nuclear extract.
For experiment [2], the target named is polynucleotide kinase-3'-phosphatase (PNKP), endogenous (human (endogenous in SH-SY5Y)) (UniProt Q96T60). Description: co-IP; endogenous bait (HTT, ATXN3, PNKP or POLR2A) immunoprecipitated from benzonase-treated nuclear extract of SH-SY5Y cells; washed with 50 mM Tris-HCl pH 7.5, 200 mM NaCl, 1 mM EDTA, 1% Triton-X100, 10% glycerol; western blot of the immunocomplex.

The target of experiment [3] is ataxin-3 (ATXN3), endogenous (human (endogenous in SH-SY5Y)) (UniProt P54252). The experiment is described as above.
Experiment [4] has as its target huntingtin (HTT), endogenous (human (endogenous in SH-SY5Y)) (UniProt P42858). The experiment is described as above.
Experiment [5] deals with polynucleotide kinase-3'-phosphatase (PNKP), endogenous (human (endogenous in SH-SY5Y)) (UniProt Q96T60). Description: proximity ligation; Duolink PLA on fixed, permeabilised SH-SY5Y cells with pairs of mouse and rabbit primary antibodies; IgG as control.
The target of experiment [6] is huntingtin (HTT), endogenous (human (endogenous in SH-SY5Y)) (UniProt P42858). The description is as above.
The target of experiment [7] is huntingtin-associated protein 1 (HAP-1), endogenous (human (endogenous in SH-SY5Y)) (UniProt P54257). Described as above.
In experiment [8] the target is polynucleotide kinase-3'-phosphatase (PNKP), endogenous (human (endogenous in SH-SY5Y)) (UniProt Q96T60). Description: proximity ligation; Duolink PLA on postmortem human brain sections, control and HD (mHTT-Q58).
Experiment [9] addresses huntingtin (HTT), endogenous (human (endogenous in SH-SY5Y)) (UniProt P42858). Described as above.
In experiment [10] the target is ataxin-3 (ATXN3), endogenous (human (endogenous in SH-SY5Y)) (UniProt P54252). Put plainly: proximity ligation; Duolink PLA on fixed, permeabilised SH-SY5Y cells with pairs of mouse and rabbit primary antibodies; IgG as control.
The target of experiment [11] is FLAG-tagged full-length PNKP (FL-PNKP) (UniProt Q96T60). Put plainly: co-IP; FLAG-tagged PNKP or its domains transfected into SH-SY5Y cells, nuclear extract 48 hr later; IP with anti-FLAG antibody (blot for endogenous HTT) or with anti-HTT antibody (blot with anti-FLAG).
Experiment [12] addresses FLAG-tagged PNKP PHOS + KIN domains (C-terminal catalytic domain) (UniProt Q96T60). The description is as above.

Results are given in words; binding and its absence hold for the method and conditions named. In cells and extracts the contact can be indirect. Some binding calls cover weakened binding; strength is not graded here.

For “FLAG-CBP (from UniProt Q92793 1-2442) (enzyme)”, in the experiment with Myc-ATXN3, the binding result was “binds”.

Take “FLAG-tagged PNKP PHOS + KIN domains (C-terminal catalytic domain) (from UniProt Q96T60 131-521) (domain or fragment)”: in experiment [1], the binding entry is given as “binds”.

As to “FLAG-tagged full-length PNKP (FL-PNKP) (from UniProt Q96T60 1-521) (enzyme)”, the binding result in [1] is listed as “binds”.

On to “Myc-ATXN3 (from UniProt P54252 1-361) (enzyme)”, for which the binding result with FLAG-CBP is “binds”.

With “apurinic-apyrimidinic endonuclease 1 (APE1), endogenous (from UniProt P27695 1-318) (enzyme)”, the binding entry in [2], in [3] and in experiment [4] was “no binding” throughout.

“ataxin-3 (ATXN3), endogenous (from UniProt P54252 1-361) (enzyme)”: the binding entry in experiment [2], in experiment [4], in experiment [5], in experiment [6], in experiment [7] and in experiment [8] was “binds” each time. In addition, in [9], the binding result is on record as “binds”.

Regarding “cyclic AMP-response element-binding (CREB) protein (CBP), endogenous (from UniProt Q92793 1-2442) (enzyme)”, the binding entry in experiment [2], in experiment [3], in experiment [4] and in experiment [10] was “binds” each time.

Take “huntingtin (HTT), endogenous (from UniProt P42858 1-3142)”: the binding entry in [11] and in [12] was “binds” throughout.

As for “huntingtin-associated protein 1 (HAP-1), endogenous (from UniProt P54257 1-671)”, the binding entry in experiment [2], in experiment [3], in experiment [4] and in [6] was “binds” throughout.

For the molecule “polynucleotide kinase-3'-phosphatase (PNKP), endogenous (from UniProt Q96T60 1-521) (enzyme)”, the binding result in [3], in experiment [4], in experiment [6] and in experiment [9] was “binds” throughout.

B1: DNA ligase 3 (LIG 3), endogenous (enzyme, UniProt P49916 43-1009)
chain: LLHGHPLFLRRKPVLSFQGSHLRSRATYLVFLPGLHVGLCSGPCEMAEQRFCVDYAKRGTAGCKKCKEKIVKGVCRIGKVVPNPFSESGGDMKEWYHIKCMFEKLERARATTKKIEDLTELEGWEELEDNEKEQITQHIADLSSKAAGTPKKKAVVQAKLTTTGQVTSPVKGASFVTSTNPRKFSGFSAKPNNSGEAPSSPTPKRSLSSSKCDPRHKDCLLREFRKLCAMVADNPSYNTKTQIIQDFLRKGSAGDGFHGDVYLTVKLLLPGVIKTVYNLNDKQIVKLFSRIFNCNPDDMARDLEQGDVSETIRVFFEQSKSFPPAAKSLLTIQEVDEFLLRLSKLTKEDEQQQALQDIASRCTANDLKCIIRLIKHDLKMNSGAKHVLDALDPNAYEAFKASRNLQDVVERVLHNAQEVEKEPGQRRALSVQASLMTPVQPMLAEACKSVEYAMKKCPNGMFSEIKYDGERVQVHKNGDHFSYFSRSLKPVLPHKVAHFKDYIPQAFPGGHSMILDSEVLLIDNKTGKPLPFGTLGVHKKAAFQDANVCLFVFDCIYFNDVSLMDRPLCERRKFLHDNMVEIPNRIMFSEMKRVTKALDLADMITRVIQEGLEGLVLKDVKGTYEPGKRHWLKVKKDYLNEGAMADTADLVVLGAFYGQGSKGGMMSIFLMGCYDPGSQKWCTVTKCAGGHDDATLARLQNELDMVKISKDPSKIPSWLKVNKIYYPDFIVPDPKKAAVWEITGAEFSKSEAHTADGISIRFPRCTRIRDDKDWKSATNLPQLKELYQLSKEKADFTVVAGDEGSSTTGGSSEENKGPSGSAVSRKAPSKPSASTKKAEGKLSNSNSKDGNMQTAKPSAMKVGEKLATKSSPVKVGEKRKAADETLCQTKVLLDIFTGVRLYLPPSTPDFSRLRRYFVAFDGDLVQEFDMTSATHVLGSRDKNPAAQQVSPEWIWACIRKRRLVAPC
Turning to B1, the binding result in experiment [2], in experiment [3] and in experiment [4] was “binds” in each case.

B2: TAFII 130 (TAF4), endogenous (protein, UniProt O00268 1-1085)
chain: MAAGSDLLDEVFFNSEVDEKVVSDLVGSLESQLAASAAHHHHLAPRTPEVRAAAAGALGNHVVSGSPAGAAGAGPAAPAEGAPGAAPEPPPAGRARPGGGGPQRPGPPSPRRPLVPAGPAPPAAKLRPPPEGSAGSCAPVPAAAAVAAGPEPAPAGPAKPAGPAALAARAGPGPGPGPGPGPGPGPGKPAGPGAAQTLNGSAALLNSHHAAAPAVSLVNNGPAALLPLPKPAAPGTVIQTPPFVGAAAPPAPAAPSPPAAPAPAAPAAAPPPPPPAPATLARPPGHPAGPPTAAPAVPPPAAAQNGGSAGAAPAPAPAAGGPAGVSGQPGPGAAAAAPAPGVKAESPKRVVQAAPPAAQTLAASGPASTAASMVIGPTMQGALPSPAAVPPPAPGTPTGLPKGAAGAVTQSLSRTPTATTSGIRATLTPTVLAPRLPQPPQNPTNIQNFQLPPGMVLVRSENGQLLMIPQQALAQMQAQAHAQPQTTMAPRPATPTSAPPVQISTVQAPGTPIIARQVTPTTIIKQVSQAQTTVQPSATLQRSPGVQPQLVLGGAAQTASLGTATAVQTGTPQRTVPGATTTSSAATETMENVKKCKNFLSTLIKLASSGKQSTETAANVKELVQNLLDGKIEAEDFTSRLYRELNSSPQPYLVPFLKRSLPALRQLTPDSAAFIQQSQQQPPPPTSQATTALTAVVLSSSVQRTAGKTAATVTSALQPPVLSLTQPTQVGVGKQGQPTPLVIQQPPKPGALIRPPQVTLTQTPMVALRQPHNRIMLTTPQQIQLNPLQPVPVVKPAVLPGTKALSAVSAQAAAAQKNKLKEPGGGSFRDDDDINDVASMAGVNLSEESARILATNSELVGTLTRSCKDETFLLQAPLQRRILEIGKKHGITELHPDVVSYVSHATQQRLQNLVEKISETAQQKNFSYKDDDRYEQASDVRAQLKFFEQLDQIEKQRKDEQEREILMRAAKSRSRQEDPEQLRLKQKAKEMQQQELAQMRQRDANLTALAAIGPRKKRKVDCPGPGSGAEGSGPGSVVPGSSGVGTPRQFTRQRITRVNLRDLIFCLENERETSHSLLLYKAFLK
As for B2, the binding entry in experiment [2], in [3] and in [4] was “binds” each time.
